According to publication PMC12136788:
The list shows a part of the results.

T1: UNK ZnF1-6 (called full-length) (human, UniProt Q9C0B0 30-357)
T1 sequence: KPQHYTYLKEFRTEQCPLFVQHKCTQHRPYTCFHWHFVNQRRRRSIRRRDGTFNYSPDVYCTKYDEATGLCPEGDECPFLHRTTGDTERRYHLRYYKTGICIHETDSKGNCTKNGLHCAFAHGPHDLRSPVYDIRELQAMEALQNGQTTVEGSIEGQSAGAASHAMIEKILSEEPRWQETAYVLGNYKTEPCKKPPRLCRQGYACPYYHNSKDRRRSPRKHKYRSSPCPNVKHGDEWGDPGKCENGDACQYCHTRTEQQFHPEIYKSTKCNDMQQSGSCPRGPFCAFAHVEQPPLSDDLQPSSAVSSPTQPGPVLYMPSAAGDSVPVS

B1: chr6:43570573:43570674:-|CDS|ENSG00000124571|unk|FALSE|unique (ssRNA)
RNA: GGGAGUUCUACAGUCCGACGAUCGGUGUAGGAAACACAGACAGAAUUGGUGAUGUUUAUCCUUUUGCGACUGGCAGAGGAUGUAGUGACUUUUCAGACACUUCCCCCUCAAAGAAGAAGGGACAUCCAGCAAACAUUAACCCACAACAGAGGAUUGAGCAUCA
B2: chr14:88620753:88620926:-|CDS|ENSG00000165521|control|control|control (ssRNA)
RNA: GGGAGUUCUACAGUCCGACGAUCCAGCCCUGAAGGGGACAUGGUGGCUAUUGGAAUGAAAAAUGGAGAAUUUAUCAUUUUACUAGUGAGUUCUCUAAAAAUAUGGGGAAAGAAGAGAGACAGGAGAUGUGCAAUCCAUGAUAUCAACAGAGGAUUGAGCAUCA
B3: ENSG00000198589:be:win_301|CDS|ENSG00000198589|bound_else_gene|NA|bound_elsewhere_windowed (ssRNA)
RNA: GGGAGUUCUACAGUCCGACGAUCAAAUGUGACAUUACGUGCCAAGCAGAAGUCUGGAGCAUGUUUACAGCCAUUCUGAAGAAAAGCAUACGGAAUCUUCAAGUCUGCACUGAAGUAGGCCUUGUUGAAAAAGUGCUUGGGAAACAACAGAGGAUUGAGCAUCA
B4: chr13:109754583:109754684:-|3pUTR|ENSG00000185950|msi1|FALSE|unique (ssRNA)
RNA: GGGAGUUCUACAGUCCGACGAUCGAUCUCCCUGAACAUUUUUAAGGUUUUACUUUUCUGAAAUUAUACAUCACAGCAGUGCAUAGGCCAUAUAAUGUUAGCUGGAAGGUCAAUUUCAGUGUAUGAUAUACUUUAUUAAGAUGUCAACAGAGGAUUGAGCAUCA
B5: chr21:41885111:41889123:-|three_prime_utr|ENSG00000157617|control|control|control (ssRNA)
RNA: GGGAGUUCUACAGUCCGACGAUCCCAACUUGCCACCAGAUGCUAAAUGAGACUUGACAGCUGCAGAGCUUGGGCUGUGCUCAUAGCUAAGGGUUAGGGUUCAAUAUUAGAAGGAGAUUAACAUUAUAAGUGAAAUAAUAUGCUCAACAGAGGAUUGAGCAUCA
B6: chr4:169989555:169989656:-|3pUTR|ENSG00000198948|unk|FALSE|unique (ssRNA)
RNA: GGGAGUUCUACAGUCCGACGAUCUUGGACAACUCCCUUCCUCUCUCUGGGAUUUAAUCUUUUUCAUCUGUAAAAUAUGCAGGUAGUACUCGAGGGUCUACAGGAUCCCUUCUAGUUGAAACAUUUAUAGUUCACAGAAAGUUUCAACAGAGGAUUGAGCAUCA
B7: ENSG00000169762:stop:overlap|stop_codon|ENSG00000169762|stop_codon|NA|stop_codon (ssRNA)
RNA: GGGAGUUCUACAGUCCGACGAUCUCCUCACUUUGCCUUGCUAUGGCUUAAGACCGAAGGGAGGAGCACUUUCACUUCCUUUAUAGAAUGGAAUGUGGUGGCACAGGGACUCCUUGUGGGACAGACGUUUGCUUCAGCCUGCCCCAACAGAGGAUUGAGCAUCA
B8: chr7:139079551:139079652:-|CDS|ENSG00000105939|unk|FALSE|bound_elsewhere (ssRNA)
RNA: GGGAGUUCUACAGUCCGACGAUCAAUGCUGAUGGAGUGGCCACAGAUAUAACUUCUACCAGAUCCUUAAAUUACAAAAGCACUAGCAGCGGUCACAGAGAAAUAUCAUCACCUAGGAUUCAGGAUGCUGGACCUGCUUCCCGACAACAGAGGAUUGAGCAUCA
B9: chr7:16791810:16792950:-|three_prime_utr|ENSG00000106541|control|control|control (ssRNA)
RNA: GGGAGUUCUACAGUCCGACGAUCAGCCCUUCUGUCUGUCAGGCCUUGAGACUUGAAACCAGAAGAAGUGUGAGAAGACUGGCUAGUGUGGAAGCAUAGUGAACACACUGAUUAGGUUAUGGUUUAAUGUUACAACAACUAUUUCAACAGAGGAUUGAGCAUCA
B10: chr10:92030471:92030572:+|3pUTR|ENSG00000095564|unk|total|mutant (ssRNA)
RNA: GGGAGUUCUACAGUCCGACGAUCUAUUUUUUUAUUAACUAUUUAUUUGCCCGUUCCAUAAACCAGCUCUUUAACACCGCUUACCGUAAUUGAUAUUUUCUCCGAAUAAGUACAGAGCAAUAUAUCAUUAAAGGGCUAUGAAGGCAACAGAGGAUUGAGCAUCA
B11: chr7:137879121:137879144:-|3pUTR|ENSG00000182158|msi1_unk|FALSE|overlapping (ssRNA)
RNA: GGGAGUUCUACAGUCCGACGAUCUAAUCCCCAACCUACUUUUAGUUUUUUUGUUUUUUUUUUAUGGUUAAAAGUAACUUUUGUAGUUUAAAAAAAUCUUUCCUCUUUCAUAUAAAUAAGAAGUGGAAAUUGCCUUUUUAUUGUCAACAGAGGAUUGAGCAUCA
B12: ENSG00000176244:stop:overlap|stop_codon|ENSG00000176244|stop_codon|NA|stop_codon (ssRNA)
RNA: GGGAGUUCUACAGUCCGACGAUCAAGAUGCGACGAGUGCCUAUAUUUCUAAAGCAAAGGAGCUGAUAGAAAAAUACGGAAUUUAGAAUACAGCAUAUGAGGAAUUUUUCCUUUUGAAGACUUCCAAAUGCUAUCAUGACCUAACAACAGAGGAUUGAGCAUCA
B13: chr1:169376695:169376796:+|CDS|ENSG00000117475|unk|FALSE|unique (ssRNA)
RNA: GGGAGUUCUACAGUCCGACGAUCUCUUCAGCUAGGGAAAAUGCUCACUGAAAAAGCAAUGGAAGUUAAAGCUGUAAGAAUAUUAGUUCCCAAAGCUGCUAUAACUCAUGAUAUCCCCAACAAAAAUACAAAGGUUAAGUCUCUCAACAGAGGAUUGAGCAUCA
B14: chr3:113720845:113720875:-|3pUTR|ENSG00000121579|msi1_unk|FALSE|overlapping (ssRNA)
RNA: GGGAGUUCUACAGUCCGACGAUCCCUUUUUCUUCAGUAAACCCAACAAUAGUCUAACCUUAAAAAUUGAGUUGAUGUCCUUAUAGGUCACUACCCCUAAAUAAACCUGAAGCAGGUGUUUUCUCUUGGACAUACUAAAAAAUACAACAGAGGAUUGAGCAUCA
B15: chr2:150470103:150470218:-|CDS|ENSG00000115963|unk|FALSE|unique (ssRNA)
RNA: GGGAGUUCUACAGUCCGACGAUCAUGGCCAAACAGAUUGGAGCAGCUACUUAUAUCGAAUGCUCAGCUUUACAGUCGGAAAAUAGCGUCAGAGACAUUUUUCACGUUGCCACCUUGGCAUGUGUAAAUAAGACAAAUAAAAACCAACAGAGGAUUGAGCAUCA
B16: ENSG00000186472:stop:overlap|stop_codon|ENSG00000186472|stop_codon|NA|stop_codon (ssRNA)
RNA: GGGAGUUCUACAGUCCGACGAUCUUUCUUGUAAAUGGAAAUUUUAUCAUGUGUAUAGAUUCUGUAGCAUGCUUUUCUUUAUUUAGUUUUACUUUAUUCCUUUAUUGUUCUGUUUCUUGAUUGUUUGCUUGAUUUGUUUGGUGUCAACAGAGGAUUGAGCAUCA
B17: chr8:74853834:74853946:+|3pUTR|ENSG00000137558|unk|FALSE|unique (ssRNA)
RNA: GGGAGUUCUACAGUCCGACGAUCAAGUGCUUUUUUUUUUCUGAAUUAAUUAGGUAUUGGUAAAAUAUAUUUUUAAAUUUAGUUAGCUUUAUAAACACAAUUAGAAUUACAAUUAAUUAACAGAGGUAUAAUUGUCUCACUUUCCAACAGAGGAUUGAGCAUCA
B18: chrX:120613669:120613770:+|3pUTR|ENSG00000232119|msi1|total|mutant (ssRNA)
RNA: GGGAGUUCUACAGUCCGACGAUCUAUGCCUCCUGUAUAUCCUGUAAACAAAUAAGAUUGAUCAGAUUCAGGUUCAGUUUUUUCCGUGCCUUCUUUUGAGUAAAGUCAUACCAAACAGAUGCCCAGAACAUCUGGAUUUGGGUCCAACAGAGGAUUGAGCAUCA
B19: ENSG00000103657:stop:overlap|stop_codon|ENSG00000103657|stop_codon|NA|stop_codon (ssRNA)
RNA: GGGAGUUCUACAGUCCGACGAUCAGUUUUCUGUUGCUUUGACCAAAGAUGGUCAUGUGUAUACCUUUGGUCAAGGUGGUGAGUAGUCACUAUGACCUCCUUUCAGUAUAGAUAAUUUUCCACUUCUCUUUCAUGUGCUUUAUUCAACAGAGGAUUGAGCAUCA
B20: chr2:54972555:54972835:-|3pUTR|ENSG00000115310|msi1_unk|FALSE|overlapping (ssRNA)
RNA: GGGAGUUCUACAGUCCGACGAUCUGUGCACUGUGUAUGGUCCGUGUAGAUUGAUGCAGAUUUUCUGAAAUGAAAUGUUUGUUUAGACGAGAUCAUACCGGUAAAGCAGGAAUGACAAAGCUUGCUUUUCUGGUAUGUUCUAGGCAACAGAGGAUUGAGCAUCA
B21: ENSG00000168615:stop:overlap|stop_codon|ENSG00000168615|stop_codon|NA|stop_codon (ssRNA)
RNA: GGGAGUUCUACAGUCCGACGAUCCUGGCCAGAAUACCCAAAAUAAUUGGCAGAUGUCAAAUUUGGCUUUCUGUGUUUAUUACUAGAGCAUAAACAUUUCUAGUUUUGUUUGAGUGUUUUACAGUCCUUUUUGGCAGUUAGGUACAACAGAGGAUUGAGCAUCA
B22: chr16:56429670:56429771:-|3pUTR|ENSG00000167005|msi1|total|mutant (ssRNA)
RNA: GGGAGUUCUACAGUCCGACGAUCCAAUCACUGAGACUGCAUCAGAGUUUGCAAUUUUGUAUGUUUCAUUGCCAAAGAAGGCUCCGUGGUUGUUGACUGCCGUAUAAGUCAGCUUUCUGCCGCAUAAGAUUUGAUUUUCCCAUACAACAGAGGAUUGAGCAUCA

target: T1, UNK ZnF1-6 (called full-length); test: nsRBNS (natural sequence RNA bind-n-seq); RBNS binding buffer (assumed for nsRBNS): 25 mM Tris pH 7.5, 150 mM KCl, 3 mM MgCl2, 0.01% Triton X-100, 500 ug/ml BSA, 20 U/ml SUPERase-In, 4 C; UNK is unkempt and MSI1 is Musashi-1; names of the RNAs are library labels; protein concentration not given here; high values mean tight binding

Row | Binder | binding signal [enrichment R]
1 | B1 | 0.529
2 | B2 | 0.851
3 | B3 | 0.329
4 | B4 | 0.723
5 | B5 | 2.63
6 | B6 | 0.885
7 | B7 | 0.472
8 | B8 | 0.75
9 | B9 | 0.789
10 | B10 | 5.92
11 | B11 | 14.9
12 | B12 | 0.808
13 | B13 | 0.304
14 | B14 | 2.86
15 | B15 | 0.482
16 | B16 | 0.541
17 | B17 | 171
18 | B18 | 0.277
19 | B19 | 0.846
20 | B20 | 0.273
21 | B21 | 0.532
22 | B22 | 0.226
